Experimental data reported in the supplement of paper PMC12645437, “Orthogonal IMiD-Degron Pairs Induce Selective Protein Degradation in Cells” (ACS Chemical Biology, 2025).
Some of the results follow.
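Further: jurkat cells carrying a lentiviral library of mutant zinc finger degrons fused to EGFP plus mCherry, mCherry+ cells FACS sorted, degron abundance counted by next-generation sequencing.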

These sequences were tested against no compound (DMSO) (assay: log2 fold change of degron read counts, EGFP-low vs EGFP+ sorted cells; higher = lower degron-EGFP level without compound (poor expression or instability)). Conditions: compound: DMSO control; 18 h.
LGCPICGFMCTQKGNLLRHIKL was tested, and the “log2 fold change of degron read counts” value was 1.01.
In the case of FSCSVCGHIFTQKGNLLRHIKL, the “log2 fold change of degron read counts” value is reported as -0.0286.
For LTCEICGFECTQKGNLLRHIKL, the “log2 fold change of degron read counts” value was -1.14.
LNCPICGFVCTQKGNLLRHIKL was tested, and the “log2 fold change of degron read counts” value was 0.674.
In the case of FTCNQCGRPFTQKGNLLRHIKL, the “log2 fold change of degron read counts” value is reported as -0.293.
FRCNVCGAGFTQKGNLLRHIKL was tested, and the “log2 fold change of degron read counts” value was -0.728.
FKCPQCGAGFTQKGNLLRHIKL was tested, and the “log2 fold change of degron read counts” value was -0.828.
In the case of FQCNICGAQFTQKGNLLRHIKL, the “log2 fold change of degron read counts” value is reported as -0.457.
For FTCPICGHIFTQKGNLLRHIKL, the “log2 fold change of degron read counts” value was 0.227.
For FQCSVCGHWFTQKGNLLRHIKL, the “log2 fold change of degron read counts” value was -0.11.
In the case of FYCEICGHDFTQKGNLLRHIKL, the “log2 fold change of degron read counts” value is reported as -1.12.
For LFCEICGFACTQKGNLLRHIKL, the “log2 fold change of degron read counts” value was 0.705.
For FMCPICGRRFTQKGNLLRHIKL, the “log2 fold change of degron read counts” value was 0.0202.
With FLCEICGRCFTQKGNLLRHIKL the “log2 fold change of degron read counts” value was -1.15.
